For assay [1], the target named is T1, SIRT2-HA with S368 mutated to Ala (human) (UniProt Q8IXJ6).
T1 sequence: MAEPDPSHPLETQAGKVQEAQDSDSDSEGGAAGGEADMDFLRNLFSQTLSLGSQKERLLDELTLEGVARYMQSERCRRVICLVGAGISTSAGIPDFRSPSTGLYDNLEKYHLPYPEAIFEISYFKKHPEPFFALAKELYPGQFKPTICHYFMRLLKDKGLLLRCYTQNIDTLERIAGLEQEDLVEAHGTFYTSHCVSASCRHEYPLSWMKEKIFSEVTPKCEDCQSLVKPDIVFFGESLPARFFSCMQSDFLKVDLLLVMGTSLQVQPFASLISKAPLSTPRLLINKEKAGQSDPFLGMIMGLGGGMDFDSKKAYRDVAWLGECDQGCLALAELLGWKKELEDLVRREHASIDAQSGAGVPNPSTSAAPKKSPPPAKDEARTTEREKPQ
Briefly: co-IP; HEK293T lysates (50 mM Tris HCl pH 8.0, 150 mM NaCl, 1% triton X-100, 1 mM EDTA), 0.5-1 mg protein, antibody 6-8 h at 4 °C, Protein G-agarose overnight; reciprocal immunoprecipitations (anti-VRK1, anti-FLAG, anti-HA).

In assay [2] the target is T2, SIRT2-Flag (human) (UniProt Q8IXJ6).
T2 sequence: T1 sequence with A368S
Described as above.

Assay [3] has as its target T3, SIRT2-HA with S368 mutated to Glu (human) (UniProt Q8IXJ6).
T3 sequence: T1 sequence with A368E
Described as above.

In assay [4] the target is T4, endogenous VRK1 (human (endogenous in HEK293T)) (UniProt Q99986).
T4 sequence: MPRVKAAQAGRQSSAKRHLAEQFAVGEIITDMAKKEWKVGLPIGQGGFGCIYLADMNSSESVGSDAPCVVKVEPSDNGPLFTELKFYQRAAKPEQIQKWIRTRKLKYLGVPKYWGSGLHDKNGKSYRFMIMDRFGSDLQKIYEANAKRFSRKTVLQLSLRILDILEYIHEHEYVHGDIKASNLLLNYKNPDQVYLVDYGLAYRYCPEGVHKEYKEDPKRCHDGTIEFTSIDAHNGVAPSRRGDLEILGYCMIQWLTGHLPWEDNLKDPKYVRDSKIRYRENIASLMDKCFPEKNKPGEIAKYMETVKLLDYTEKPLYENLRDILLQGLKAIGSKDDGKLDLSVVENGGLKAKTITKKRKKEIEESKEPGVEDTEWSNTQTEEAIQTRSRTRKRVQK
Described as above.

Assay [5] deals with T5, VRK1-HA (human) (UniProt Q99986).
T5 sequence: T4 sequence
The assay is described as above.

Assay [6] deals with T6, GST-VRK1 C-terminal regulatory domain (residues 267-396) (human) (UniProt Q99986).
T6 sequence: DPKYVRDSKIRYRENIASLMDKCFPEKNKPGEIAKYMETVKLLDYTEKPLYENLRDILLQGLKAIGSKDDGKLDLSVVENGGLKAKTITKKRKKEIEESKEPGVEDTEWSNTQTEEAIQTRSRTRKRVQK
Briefly: pull-down; GST pull-down; purified GST-VRK1 (or GST-VRK1 constructs) and His-SIRT2 in 20 mM Tris-HCl pH 7.5, 5 mM MgCl2, 0.5 mM DTT, 150 mM KCl, 25 µL, 37 °C 45 min, then Glutathione Sepharose 4B beads overnight at 4 °C; increasing amounts of His-SIRT2; both purified.

Residue numbers refer to the chain shown, from its start. No constants are given. Whether binding was seen depends on the method and setting. For part of these data: Binding seen in cells or lysates may run through a third protein. Some results given as binding are weak or reduced against the parent protein; the word gives no strength. Tags and fused reporters may be left off the sequences shown.

B1: endogenous VRK1 (enzyme, UniProt Q99986 1-396)
chain: T4 sequence
Consider B1, for which the binding entry in assay [1], in assay [2] and in assay [3] was “binds” in each case.

B2: VRK1-HA (enzyme, UniProt Q99986 1-396)
chain: T4 sequence
For the molecule B2, the binding entry in assay [2] is given as “binds”.

B3: SIRT2-Flag (enzyme, UniProt Q8IXJ6 1-389)
chain: T1 sequence with A368S
For B3, the binding entry in assay [4] and in assay [5] was “binds” each time.

B4: SIRT2-his (enzyme, human, UniProt Q8IXJ6 1-389, looked up)
chain: T1 sequence with A368S
In the case of B4, the binding result in assay [6] was “no binding”.

B5: SIRT2-HA with S368 mutated to Ala (enzyme, UniProt Q8IXJ6 1-389)
chain: T1 sequence
As for B5, in assay [4], the binding entry was “binds”.

B6: SIRT2-HA with S368 mutated to Glu (enzyme, UniProt Q8IXJ6 1-389)
chain: T1 sequence with A368E
On to B6, for which the binding entry in assay [4] was “binds”.

The values are drawn from PMC10003087, “VRK1 Kinase Activity Modulating Histone H4K16 Acetylation Inhibited by SIRT2 and VRK-IN-1” (International Journal of Molecular Sciences, 2023).
